{"source": "paper PMC12136788", "binders": {"B1": {"name": "chr22:32879901:32879902:+_ENSG00000100225_ENST00000397426|hu_mus|hu_hu_hu_mus_False|58_108 (ssRNA)", "RNA": "GGGAGUUCUACAGUCCGACGAUCCUCUGCCAUAUGCAUGGCAUCCUGAAUUGACUCAGCUUCAACAUUUUGACUAGGCCCUAACAUACUGUCAUCAGUCCAGGCAUCAAAUGGGGUGGCCUGUCCUUGGGAUGAAUCAGUCCCCAACAGAGGAUUGAGCAUCA"}, "B2": {"name": "7411273_7411393_443_CDS_ENSMUSG00000040021_ENSMUST00000165952|mouse|control|control (ssRNA)", "RNA": "GGGAGUUCUACAGUCCGACGAUCUUUUGAUAAAUUCCUCAGGGAUUCUCGGAUCUCCUGCAGCAUCUGUCGGCUGCUGCCAGGGUAGUUGCUGGCAGGAAAGGUCUUAGGCCUCAUCUGUCUGUACCCUUCUGGCUUUUCACCCAACAGAGGAUUGAGCAUCA"}, "B3": {"name": "82873911_82874031_790_3pUTR_ENSMUSG00000042724_ENSMUST00000035987|mouse|control|control (ssRNA)", "RNA": "GGGAGUUCUACAGUCCGACGAUCGCCUCUUGGCGAACGUUCUCUAUGGUCUGGCUGAUGUCCUCAUCAGGGUCGUGACGAGCUGCCUUCACGGCCACCUCAUCGCCCGCCCAGAAAGCACGAUAAACUUUCCCAAAGCCCCCACAACAGAGGAUUGAGCAUCA"}, "B4": {"name": "chr13:31722580:31722581:-_ENSG00000120694_ENST00000320027|hu_hu|motif|central (ssRNA)", "RNA": "GGGAGUUCUACAGUCCGACGAUCUGAAUCAUGGUUCCAGAUCAGAGAUAUUGGAAAAGGAACUGCAUCUGUGACGGAAAAUUCUCGGACUUUAAAUGCCGGGGAAAGUAUUGCACACUGUAAUGCACAUCCUCUGGCUACUGCCAACAGAGGAUUGAGCAUCA"}, "B5": {"name": "chr16:45382771:45382772:-_ENSMUSG00000022661_ENSMUST00000163230|mus_mus|mus_mus_mus_hu_True|58_98 (ssRNA)", "RNA": "GGGAGUUCUACAGUCCGACGAUCCUGGGUCAUGUUAUGGGCCCAAUGGACAGGGAGGGCAUGCUUCUCAAAAAAUGUGAACUACUCUCUAAGACUAACAAUAUUUAUCUAGCUAUAAAAAUAAGUUAAAUGAAUAAGUUAAGACAACAGAGGAUUGAGCAUCA"}, "B6": {"name": "chr1:129704038:129704039:+_ENSMUSG00000026349_ENSMUST00000027587|mus_hu|FALSE|FALSE (ssRNA)", "RNA": "GGGAGUUCUACAGUCCGACGAUCUACAGCAAUUAGGUUGCUCACUGAUUUCUGAUAUUAACGUAUCAGAAUGUGAUUCUCAAAUUAGUAUCAUAGCUUGGUACCCAAGGUCAGAGAAUGUGCUGCUUUUCCAAUGCAAAAAUCCAACAGAGGAUUGAGCAUCA"}, "B7": {"name": "chr5:37516192:37516193:+_ENSMUSG00000063646_ENSMUST00000043794|mus_mus|FALSE|FALSE (ssRNA)", "RNA": "GGGAGUUCUACAGUCCGACGAUCUCCGUUUGAGAGCUUACAACAGAUAGAGUCUCUUACUUCGAGUUCUAGCACUCUGAAUUCUAACAGCUCGUUCUGGUCCUUGGCGUCUUGCAUUUCGCUCUUUAGCUGGUUCUCCUCCAUCAACAGAGGAUUGAGCAUCA"}, "B8": {"name": "chr7:35424158:35424159:-_ENSMUSG00000030499_ENSMUST00000108069|mus_mus|FALSE|FALSE (ssRNA)", "RNA": "GGGAGUUCUACAGUCCGACGAUCGUACAUCAGCAUCUUUACAAUAUUAAAGGAGUCAUAUACAAGUCUACAGGCGUUAUACACAAGGGGGUGCCGGCCAGGGCACCCCAUCUGUCAGUUCUUUGCGGUUCCUCCACUUGGGAGCAACAGAGGAUUGAGCAUCA"}, "B9": {"name": "chr7:151048522:151048523:+_ENSG00000013374_ENST00000566856|hu_mus|hu_hu_hu_mus_True|28_78 (ssRNA)", "RNA": "GGGAGUUCUACAGUCCGACGAUCCUGUUUCUUAUUUAUUACGAUCUUGAUGUAAUUUUCUUGAAGUCCGAAAGUUUCAGCUAUUUGACACCUCAGGUCUCUACCAGUGAUGUGCAAGCGGGUCUCCAACAAGCUUUUCUUAUCCAACAGAGGAUUGAGCAUCA"}, "B10": {"name": "70707100_70714003_815_CDS_ENSMUSG00000020817_ENSMUST00000076270|mouse|control|control (ssRNA)", "RNA": "GGGAGUUCUACAGUCCGACGAUCGGCCUCCAGAUAAUGAUUCAGCUCCUUAACCUUUGAGGCCUCCAGCUCUUUAAUCUUGUCUUCAGCUUCUGUCAGUUUAUCUUUCAGAGCUGCAAUUUCCUUCUCCAUGGGCAUCACGACCAACAGAGGAUUGAGCAUCA"}, "B11": {"name": "chr7:883111:883112:+_ENSG00000164828_ENST00000456758|hu_mus|FALSE|FALSE (ssRNA)", "RNA": "GGGAGUUCUACAGUCCGACGAUCGAGGUCACGUGGUUUGAGAGUCCUGUCUCUGGAGUACACCCUGGAGGUGGUCCCGUGGAUGGCAGAGUGGGCUGUGAGUGCGUCAGUGCGCGCUGAGAGCAUCCUGCAGUCACGGCAAGUCAACAGAGGAUUGAGCAUCA"}, "B12": {"name": "chr18:38477064:38477065:+_ENSMUSG00000060450_ENSMUST00000072376|mus_hu|FALSE|FALSE (ssRNA)", "RNA": "GGGAGUUCUACAGUCCGACGAUCUGCAGAUAUAAUUCAAGAACAUUCAGCUUGGGAAUAUAUUAAGCUUUCUCCUAUUCCAGCAGAGGAAAUAAAAACAUGUGUUCCUGGAAUUAAUAUUAAAAUCAUCCUUACAAACAGAAGCAACAGAGGAUUGAGCAUCA"}, "B13": {"name": "chrX:11616105:11616106:-_ENSMUSG00000040363_ENSMUST00000043441|mus_hu|FALSE|FALSE (ssRNA)", "RNA": "GGGAGUUCUACAGUCCGACGAUCGAUGUUAUAACACGGUAAGAGGGGGGUCUCUGAAAAUUCAAAUUCAAACACAUCGCUAUAGGCAUCGUCAUCAUCAUCCUGGUCUUCUGGUCCUGGGGGGUUGGCUAAAACAUCAUAGCCCAACAGAGGAUUGAGCAUCA"}, "B14": {"name": "chr9:130210260:130210261:-_ENSG00000197958_ENST00000361436|hu_hu|motif|central (ssRNA)", "RNA": "GGGAGUUCUACAGUCCGACGAUCGCCCACUGACUGGGCAGUCCCCAGGAUCUCUUUAAUGGUUCCAGAGAGUUCUCUGGCGGAGGAUCGGUGCCGCAUCUGUCGAGCAAUGUUGACAAUCUCAUCAAAAGUGAUAUUCCCACUCAACAGAGGAUUGAGCAUCA"}, "B15": {"name": "chr1:172411362:172411363:-_ENSG00000135845_ENST00000344529|hu_hu|FALSE|FALSE (ssRNA)", "RNA": "GGGAGUUCUACAGUCCGACGAUCCAUGGCAUAGAUGGUGUCAGUGCUGACAGACUCUGUAAGGGUCUUCAGCACUGGUGAAAACCCAUAAGUGAAAGUAAUGAAGACUAGGGCACUCUUCAGGUCAGCCCACCGGGUCUGCCCCAACAGAGGAUUGAGCAUCA"}, "B16": {"name": "101235404_101239261_1892_CDS_ENSMUSG00000042035_ENSMUST00000043983|mouse|control|control (ssRNA)", "RNA": "GGGAGUUCUACAGUCCGACGAUCGCUGCUUUUGAGGGGCAGCACGACGAUGGGGAUGUUCUUGGGCCGCUUGCUCUCCUUGUCUAUGAACUCGCCAGUGACAGUCUUCUCUCGCUCAGUCACCCGGCAGUUGUAUUUGCCACUCAACAGAGGAUUGAGCAUCA"}, "B17": {"name": "chr4:17845017:17845018:+_ENSG00000109805_ENST00000514176|hu_mus|hu_hu_hu_mus_False|1_38 (ssRNA)", "RNA": "GGGAGUUCUACAGUCCGACGAUCGCUCUCUUAACUUGUAUCUUCAUUAAGGAACUCUGCAAGGUUAAGUUUACUUUUCUGUAGCGCAGCUGUUUUGCUCGUCUUGGGUAAUCUCAUCUUCAUUUCUGAUGGUGGUUUGGAACUCAACAGAGGAUUGAGCAUCA"}, "B18": {"name": "chr11:46405157:46405158:+_ENSG00000110492_ENST00000395566|hu_hu|hu_hu_hu_mus_False|48_48 (ssRNA)", "RNA": "GGGAGUUCUACAGUCCGACGAUCCCCUCCCCACUUUGGGCACUUGGUGUGGGCGUGAGAGGACAGGCGUGAUUGACAGAGCUGACAAGCAGACAGAAGGCACUGGUGGGUUAUAUCUUGGGCCUGUGGGAGAGGAGGGCUCCGCAACAGAGGAUUGAGCAUCA"}, "B19": {"name": "31412609_31414751_1557_CDS_ENSMUSG00000039100_ENSMUST00000090227|mouse|control|control (ssRNA)", "RNA": "GGGAGUUCUACAGUCCGACGAUCUUCCUGUACUGGAUUAAAAUCUGGAUCGUUCAAAUUCCUCAGAAACCAUAAGACACCAGGUCGAAGUACCUCUCUCAGUAACAGGAUGAAGGAGGCAAAGUAGAACACAUACACCAUUCCCAACAGAGGAUUGAGCAUCA"}, "B20": {"name": "chr1:184247048:184247049:-_ENSMUSG00000047539_ENSMUST00000051431|mus_hu|motif|central (ssRNA)", "RNA": "GGGAGUUCUACAGUCCGACGAUCCUGGAACUAGAACCACAUUCCAAUUUACUUUCUAUUCCGAAGACGUUUAGAUUUCCGGAGAGAGUCUAUGGCUUCCGUGGCCUUUUUUCGUUUCCGAGGAGACUCCUCAUUCUGCCCGGACAACAGAGGAUUGAGCAUCA"}, "B21": {"name": "chr17:35122734:35122735:+_ENSMUSG00000007050_ENSMUST00000114011|mus_hu|motif|central (ssRNA)", "RNA": "GGGAGUUCUACAGUCCGACGAUCCCAUCCCCAAAUGAAUCACAUGCUGCCCUGGAAAGACCUAGGAAACUCUCCGGCCAUCUCCAGAGAAGUAGUGAGAAAGGCAGGUGCUGGGGACUGGGAAGGCUUUGAAGUUUCCCAGCCCAACAGAGGAUUGAGCAUCA"}, "B22": {"name": "chr1:225977196:225977197:+_ENSG00000143742_ENST00000304786|hu_hu|motif|central (ssRNA)", "RNA": "GGGAGUUCUACAGUCCGACGAUCAUUUCCAAAAGUAAAUAAAGGCUUUCUAACUGAAAACAUUUGCAUCCCUAGCUCUCGGAAGUAAUUAAAAAGAAAAUUACAAAAAAUGACCUCUAAGCUUCUGAACAGCCCACUUAGUUACAACAGAGGAUUGAGCAUCA"}}, "note": "The other results are listed elsewhere or left out."}
{"molecular_target": "T1, UNK ZnF1-3 (human, UniProt Q9C0B0 31-174)", "T1 sequence": "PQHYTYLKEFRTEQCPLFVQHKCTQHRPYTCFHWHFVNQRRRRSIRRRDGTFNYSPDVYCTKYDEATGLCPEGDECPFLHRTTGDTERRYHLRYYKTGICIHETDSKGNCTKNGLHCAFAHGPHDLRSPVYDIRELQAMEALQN", "assay": "nsRBNS (natural sequence RNA bind-n-seq); RBNS binding buffer (assumed for nsRBNS): 25 mM Tris pH 7.5, 150 mM KCl, 3 mM MgCl2, 0.01% Triton X-100, 500 ug/ml BSA, 20 U/ml SUPERase-In, 4 C; UNK is unkempt and MSI1 is Musashi-1; names of the RNAs are library labels; protein concentration not given here; high values mean tight binding", "units": {"binding signal": "enrichment R"}}
{"binder": "B1", "binding signal": 0.945}
{"binder": "B2", "binding signal": 0.198}
{"binder": "B3", "binding signal": 0.876}
{"binder": "B4", "binding signal": 0.926}
{"binder": "B5", "binding signal": 0.714}
{"binder": "B6", "binding signal": 0.97}
{"binder": "B7", "binding signal": 0.441}
{"binder": "B8", "binding signal": 0.591}
{"binder": "B9", "binding signal": 0.629}
{"binder": "B10", "binding signal": 0.827}
{"binder": "B11", "binding signal": 0.924}
{"binder": "B12", "binding signal": 1.74}
{"binder": "B13", "binding signal": 1.4}
{"binder": "B14", "binding signal": 1.24}
{"binder": "B15", "binding signal": 0.653}
{"binder": "B16", "binding signal": 0.651}
{"binder": "B17", "binding signal": 0.399}
{"binder": "B18", "binding signal": 2.26}
{"binder": "B19", "binding signal": 1.35}
{"binder": "B20", "binding signal": 0.585}
{"binder": "B21", "binding signal": 0.705}
{"binder": "B22", "binding signal": 1.85}
